Consider 50 compounds from article PMC6919601, “Identification of Plasmodium dipeptidyl aminopeptidase allosteric inhibitors by high throughput screening” (PLoS ONE, 2019).

SMILES strings stand for the structures. Hit rate of the full screen: of about 110,000 compounds, about 230 (0.21%) showed an effect of 50% or more. This is one part of the list.
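Further: 30 min substrate incubation versus DMSO and 10 µM JCP410 controls.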

The target of this assay is DPAP1 (Plasmodium falciparum, UniProt Q8IIJ9). The assay is described as follows: primary screen, percent inhibition; read by cleavage of a fluorogenic dipeptide substrate; higher = more effect of the substance. Also noted: species or system P. falciparum D10 trophozoite lysates; single well.
DPAP1, sequence (Q8IIJ9 whole entry, looked up): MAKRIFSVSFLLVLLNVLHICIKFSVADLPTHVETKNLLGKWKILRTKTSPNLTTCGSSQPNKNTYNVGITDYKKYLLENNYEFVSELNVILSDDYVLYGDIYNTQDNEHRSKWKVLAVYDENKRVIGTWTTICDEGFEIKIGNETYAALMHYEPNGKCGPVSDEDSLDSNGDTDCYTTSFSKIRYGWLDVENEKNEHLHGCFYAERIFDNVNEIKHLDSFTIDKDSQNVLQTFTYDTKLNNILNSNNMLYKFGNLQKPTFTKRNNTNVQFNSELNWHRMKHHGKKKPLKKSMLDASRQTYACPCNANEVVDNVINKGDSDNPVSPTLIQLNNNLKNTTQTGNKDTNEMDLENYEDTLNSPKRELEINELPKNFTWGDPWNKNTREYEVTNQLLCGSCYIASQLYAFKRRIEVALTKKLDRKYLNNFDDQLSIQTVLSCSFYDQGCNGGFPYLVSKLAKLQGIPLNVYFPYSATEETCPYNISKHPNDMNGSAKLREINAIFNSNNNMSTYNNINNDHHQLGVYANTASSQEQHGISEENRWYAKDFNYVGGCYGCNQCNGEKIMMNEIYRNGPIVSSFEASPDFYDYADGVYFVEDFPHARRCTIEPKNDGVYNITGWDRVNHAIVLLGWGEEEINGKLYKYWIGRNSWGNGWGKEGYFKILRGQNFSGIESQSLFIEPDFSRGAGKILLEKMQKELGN
For the compound `CC(C)N(Cc1nc(-c2ccc(Cl)cc2)no1)C(=O)/C=C/c1ccccc1`, the “% Inhibition @ 10 uM” value is 4.41%. With `CCCC(C(=O)c1ccccc1)n1cncn1` (centres unmarked), the “% Inhibition @ 10 uM” value is listed as 1.31%. As to `CCCOC(=O)c1sc2nc3c(cc2c1N)CN(C)CC3`, the “% Inhibition @ 10 uM” value was -1.08%. Consider `C=CCN1C(=O)NC(=O)/C(=C/c2ccc(-c3ccc(C(=O)OCC)cc3)o2)C1=O`, for which the “% Inhibition @ 10 uM” value turned out to be 1.58%. In the case of `CCOC(=O)C1=C(C)N(CCOC)C(=O)/C1=C\c1ccc(C)cc1`, the “% Inhibition @ 10 uM” value is recorded as -1.04%.

In the case of `O=C(C1=C(O)C(=O)N(c2cccnc2)C1c1ccccc1)c1ccccc1` (centres unmarked), the “% Inhibition @ 10 uM” value was found to be 0.727%. As for `CC1=CC(C)(C)NC(=S)N1c1ccc(O)cc1`, the “% Inhibition @ 10 uM” value is reported as -1.91%.

In the case of `O=C1c2ccccc2NC(c2ccc3c(c2)OCO3)N1Cc1ccco1` (centres unmarked), the “% Inhibition @ 10 uM” value is -2.89%.

With `O=C(C(Cc1ccccc1)N1C(=O)c2ccccc2C1=O)N1CCCCC1` (centres unmarked), the “% Inhibition @ 10 uM” value is -1.96%. `CCc1ccc(-c2cc(C(F)(F)F)n3nc(C(=O)Nc4cccnc4)cc3n2)s1`: the “% Inhibition @ 10 uM” value is recorded as -3.92%. With `CC(CCCC(C)(C)O)NC1CCCCCC1` (centres unmarked) the figure was -2.91%. With `COc1ccc(C(=O)C2=C(O)C(=O)N(c3ccccn3)C2c2ccc(C(C)C)cc2)cc1` (centres unmarked) the figure was 2.17%. On to `O=C(O)CCC(=O)Nc1ccccc1C(=O)Nc1ccccc1`, for which the “% Inhibition @ 10 uM” value is listed as 17.4%. Turning to `CCOC(=O)CSc1nc(N)c(C#N)c(-c2ccc(O)cc2)c1C#N`, the “% Inhibition @ 10 uM” value stood at 2.55%.

`C#CCSCc1nc2ccccc2[nH]1`: the “% Inhibition @ 10 uM” value is 2.73%. In the case of `O=S(=O)(Nc1ccc2c(c1)OCCO2)c1cccc(F)c1`, the “% Inhibition @ 10 uM” value is -10.1%. Regarding `C=Cc1ccc(CSc2nncn3c2cc2oc(C)cc23)cc1`, the “% Inhibition @ 10 uM” value was -0.553%. With `CCN(CC)CCN(C)Cc1c(F)cccc1Cl` the figure was 0.273%. On to `COc1ccc(CCN2C(=O)CC(N3CCN(C/C=C/c4ccccc4)CC3)C2=O)cc1OC` (centres unmarked), for which the “% Inhibition @ 10 uM” value is given as -3.33%. As to `O=C(CCc1nc(CN2CCN(C(=O)c3cc(-c4cccs4)on3)CC2)no1)N1CCOCC1`, the “% Inhibition @ 10 uM” value is on record as -2.93%. `COc1ccc2c(c1)OC13CCCCC1C2C(C(=O)c1ccccc1)C(=O)N3` (centres unmarked): the “% Inhibition @ 10 uM” value is recorded as -4.01%. Take `O=C(O)c1sc2c(ccc3ccccc32)c1Br`: the “% Inhibition @ 10 uM” value is listed as -6.68%. Regarding `Cc1ccc(-c2nc(CS(=O)CC(=O)NC3CCCc4ccccc43)c(C)o2)cc1` (centres unmarked), the “% Inhibition @ 10 uM” value is given as -1.05%. Turning to `COc1cccc(C2c3c(oc4ccccc4c3=O)C(=O)N2c2nccs2)c1OC` (centres unmarked), the “% Inhibition @ 10 uM” value is reported as -1.35%. On to `CCCn1c2ccccc2c2cnn(CC(=O)Nc3nnc(CC)s3)c(=O)c21`, for which the “% Inhibition @ 10 uM” value turned out to be 6.35%. With `Cc1ccc(-c2csc(-c3cc4cc(Br)cc([N+](=O)[O-])c4oc3=O)n2)c(C)c1` the figure was -7.99%; with `O=C(NCCCN1CCOCC1)C(=O)NCC(c1cccnc1)N1CCOCC1` (centres unmarked), 1.68%. Regarding `CCS(=O)(=O)C1=NSC2=NC(=O)/C(=C\c3ccc(OCc4ccc(F)cc4)cc3)C(=N)N21`, the “% Inhibition @ 10 uM” value is reported as -5.27%. For the compound `O=S(=O)(NC1CCC(NS(=O)(=O)c2ccc(F)cc2)CC1)c1ccc(F)cc1` (centres unmarked), the “% Inhibition @ 10 uM” value is listed as -1.02%. `CCCS(=O)(=O)c1nc(S(=O)(=O)c2ccc(C)cc2)c(NC(C)CC)s1` (centres unmarked): the “% Inhibition @ 10 uM” value is on record as -5.89%. Turning to `C=CCNCc1cccn1-c1ccccc1`, the “% Inhibition @ 10 uM” value is recorded as 2.6%. With `Cc1ccc(NC(=O)CN2C(=O)S/C(=C/c3ccc4c(c3)n(C)c(=O)n4C)C2=O)cc1Cl`, the “% Inhibition @ 10 uM” value is reported as 12.4%. For `CCCCCCCN1C2=NCCN2c2ccccc21`, the “% Inhibition @ 10 uM” value is given as -6.65%. With `COc1ccc(CN2C(=O)CC(Cc3ccccc3)C2=O)cc1OC` (centres unmarked) the figure was -5.39%; with `COc1ccc(NC(=O)c2sc3nc(-c4ccc(F)cc4)ccc3c2N)cc1OC`, 1.86%; with `CS(=O)(=O)CCC(C(=O)NCCc1c[nH]c2ccccc12)N1Cc2ccccc2C1=O` (centres unmarked), 7.44%.

With `C=C1C2(C(=O)Nc3ncc(Cl)cc3Cl)CCC(C2)C1(C)C` (centres unmarked), the “% Inhibition @ 10 uM” value is on record as 1.43%. Turning to `COCP(=O)(c1ccccc1)c1ccccc1`, the “% Inhibition @ 10 uM” value is on record as -3.41%. Take `OC1(CCC2(O)CCCC2)CCCC1`: the “% Inhibition @ 10 uM” value was -3.38%.

As for `O=c1oc(-c2ccccc2)nc2c1cnn2-c1ccccc1`, the “% Inhibition @ 10 uM” value is -1.96%.

As to `CC(=O)Nc1ccc(NC(=O)COc2ccccc2)cc1`, the “% Inhibition @ 10 uM” value is 8.19%. With `COc1cc(C2=NOC(C(=O)N3C(C)CCCC3C)C2)cc(OC)c1OC` (centres unmarked) the figure was -7.71%.

Take `Cc1ccc2[nH]c(/C(C#N)=C\c3ccc[nH]3)nc2c1`: the “% Inhibition @ 10 uM” value is listed as 0.685%. `O=C(CCCN1C(=O)c2cccc3cccc(c23)C1=O)N1CCN(Cc2ccc3c(c2)OCO3)CC1`: the “% Inhibition @ 10 uM” value was -0.622%. Next, `CCc1cccc2c(C(=O)C(F)(F)F)cn(CC(N)=O)c12`: -1.1%. Turning to `Cc1cc(C)n(-c2nc3ccccc3n3c(N)nnc23)n1`, the “% Inhibition @ 10 uM” value is recorded as 1.49%. Take `CCCCOc1cccc(C(=O)Nc2ccc(CN3CCOCC3)cc2)c1`: the “% Inhibition @ 10 uM” value is reported as -3.09%. For `O=C1NC(c2ccc(F)cc2)Nc2c1sc(=S)n2-c1ccccc1` (centres unmarked), the “% Inhibition @ 10 uM” value is listed as -0.267%. Consider `Cc1nc2c(-c3ccccc3)c(C)nn2c(C)c1CC(=O)NC(C)c1cccs1` (centres unmarked), for which the “% Inhibition @ 10 uM” value was -2.45%.

On to `CCN(CC)c1ccc(NC(=O)COc2ccccc2)cc1`, for which the “% Inhibition @ 10 uM” value is listed as -3.29%.
